Laboratory results from ChEMBL document CHEMBL4888484, “Replenishing the malaria drug discovery pipeline: Screening and hit evaluation of the MMV Hit Generation Library 1 (HGL1) against asexual blood stage Plasmodium falciparum ,using a nano luciferase reporter read-out” (2022).
Hit rate of the full screen: of about 150,000 compounds, about 540 (0.36%) showed an effect of 50% or more. This is one part of the list.

Each compound was assayed on Plasmodium falciparum (assay: Primary screen in NF54 nanoGlo assay, in single point, at 2uM, 72h; a lower Z score goes with more inhibition). Conditions: timepoint 72 hour.
Format: functional, Erythrocyte
For `N#Cc1ccc(F)c(CS(=O)(=O)NCC2(C3CC3)CCC2)c1`, the “% Inhibition” value was -12% and the Z score was 1.11. With `C[C@@H](CCn1cccn1)Nc1ccc(-n2ccnn2)cc1` the “% Inhibition” value was -11% and the Z score was 0.97. `O=C1CC[C@@H](C(=O)NCCCOc2cccnc2)N1` was tested, and the “% Inhibition” value was -17% and the Z score was 1.94. `O=C(NCc1nnc([C@H]2CCOC2)[nH]1)c1ccc(Cl)c2occc12` was tested, and the “% Inhibition” value was -1% and the Z score was 0.26. With `CCn1cc(C(=O)N(C)S(=O)(=O)C(C)C)cn1` the “% Inhibition” value was 0% and the Z score was -0.05. With `CCc1noc(C2CCC(NC[C@@H](O)c3ccc(F)cc3)CC2)n1` (stereo partly specified) the “% Inhibition” value was -10% and the Z score was 1.27. In the case of `Cc1nn(CCN(C)C)c(=O)c2nc(N)sc12`, the “% Inhibition” value is reported as -5% and the Z score is reported as 0.57. In the case of `O=C(Nc1ccccc1)C1CCN(c2cnc(N3CCCCCC3)nc2)CC1`, the “% Inhibition” value is reported as -19% and the Z score is reported as 2.18. `O=C(C1CCOCC1)N(CC(F)F)c1cccc(Cl)c1` was tested, and the “% Inhibition” value was -14% and the Z score was 1.46. For `O=C1NC[C@@H](C(=O)Nc2nc(-c3ccccc3)cs2)N1`, the “% Inhibition” value was -4% and the Z score was 0.3. For `c1ccc(-c2nc(C3CCCN(CC4CCOCO4)C3)n[nH]2)cc1` (stereo unspecified), the “% Inhibition” value was -5% and the Z score was 0.54. `CCOc1cc(-c2cc(-c3ccccc3O)nc3ccc4ccccc4c23)cc(Br)c1O` was tested, and the “% Inhibition” value was 82% and the Z score was -8.45. With `Cc1cc(Cl)c(C(=O)N(C)CCCS(C)(=O)=O)cc1C` the “% Inhibition” value was -5% and the Z score was 0.92. With `Cc1c(C(=O)NC[C@H]2CCCN(Cc3ccco3)C2)ccn1C` the “% Inhibition” value was 3% and the Z score was -0.51. In the case of `O=C(Nc1ccc(NC(=O)c2ccco2)cc1)c1cc2ccccc2[nH]1`, the “% Inhibition” value is reported as -22% and the Z score is reported as 3.35. `Cc1nsc(NC[C@H]2CCc3ccccc3N2)n1` was tested, and the “% Inhibition” value was -7% and the Z score was 0.74. For `CC1(C(=O)O)CCC(C(=O)Nc2nc3c(s2)CCCC3)C1(C)C` (stereo unspecified), the “% Inhibition” value was -2% and the Z score was 0.28. `Cc1nn(-c2ccc(Cl)cc2)cc1-c1noc(C(=O)NC2CCC(C)CC2)n1` (stereo unspecified) was tested, and the “% Inhibition” value was -10% and the Z score was 1.19. For `c1coc(-c2nc3nccc(-c4ccc5c(c4)OCO5)n3n2)c1`, the “% Inhibition” value was -19% and the Z score was 2.51. In the case of `Cc1nonc1CN1CCC2(CCC(=O)N(CCc3cccnc3)C2)CC1`, the “% Inhibition” value is reported as -6% and the Z score is reported as 0.65. In the case of `Cc1nc(O)nc(O)c1S(=O)(=O)N1CCC(C(=O)NCc2cccs2)CC1`, the “% Inhibition” value is reported as -8% and the Z score is reported as 1.07. `Cc1cn2cccc(C(=O)N3C[C@H]4COCC[C@@]4(O)[C@@H]4COCC[C@@H]43)c2n1` was tested, and the “% Inhibition” value was 3% and the Z score was -0.4. `CC1(C)OCC2CC21NC(=O)Nc1cc(C(F)(F)F)cc(C2CC2)n1` (stereo unspecified) was tested, and the “% Inhibition” value was -5% and the Z score was 0.62. With `Cc1ccc(Cl)c([C@H](C(=O)O)N2CCN(C3CCN(C)CC3)CC2)c1` the “% Inhibition” value was 0% and the Z score was 0.02. With `CO[C@H]1CCOC[C@@H]1NC(=O)CCCn1ccnc1` the “% Inhibition” value was -9% and the Z score was 1.7. `Cc1csc(NC(=O)[C@@H]2COCC(=O)N2Cc2cccs2)n1` was tested, and the “% Inhibition” value was -3% and the Z score was 0.57. With `CN1CCO[C@H](C(=O)Nc2ccc(-c3ccccn3)cn2)C1` the “% Inhibition” value was -14% and the Z score was 1.44. `CC[C@@H](CNc1cc(-c2ncon2)ccn1)N1CCOCC1` was tested, and the “% Inhibition” value was 0% and the Z score was 0.04. With `CCCCN1C(=O)CC[C@@H]2CN(C(=O)COCc3ccccc3)CC[C@@H]21` the “% Inhibition” value was -2% and the Z score was 0.45. `O=C(c1ccccn1)c1ncn(CC(=O)N2CCCCCC2)n1` was tested, and the “% Inhibition” value was 0% and the Z score was 0. With `COc1ccc(CN(Cc2n[nH]c(=O)s2)[C@@H](C)C2CC2)cc1` the “% Inhibition” value was -15% and the Z score was 2.76. With `CCOc1cc(C(=O)N2CCN(c3nc4ccccc4n3CC)CC2)cc(OCC)c1OCC` the “% Inhibition” value was -1% and the Z score was 0.13. For `Cc1c(-c2nc([C@H]3CCOC3)nn2-c2ccncc2)[nH]c2ccccc12`, the “% Inhibition” value was 10% and the Z score was -1.28. For `O=C(NC1CCCC1)C(=O)N1CCN(c2ccc(F)cc2)CC1`, the “% Inhibition” value was -5% and the Z score was 0.77. With `O=C(Cc1ccc(F)cc1)N1CC(=O)N(Cc2ccccc2)C2(CCCCC2)C1` the “% Inhibition” value was -10% and the Z score was 1.52. In the case of `CCCCOC(=O)N1CCN(Cc2ccncc2)[C@@H]2CS(=O)(=O)C[C@@H]21`, the “% Inhibition” value is reported as 3% and the Z score is reported as -0.44. With `CCn1cc(C(=O)NCCNC(=O)c2cn(CC)nc2C)c(C)n1` the “% Inhibition” value was 3% and the Z score was -0.36. With `COc1ccc(CNC(=O)[C@@H]2CCCN2C)cc1OC` the “% Inhibition” value was 2% and the Z score was -0.29. With `O=C(c1ccc2nsnc2c1)N1Cc2cncnc2C1` the “% Inhibition” value was -5% and the Z score was 0.8. For `O=C(Nc1ccc(C(=O)C2CCC2)cc1)Nc1cnn(CCF)c1`, the “% Inhibition” value was 11% and the Z score was -1.24. For `Cc1cnc(C(=O)Nc2cccc(Cn3ccnc3)c2)cn1`, the “% Inhibition” value was -10% and the Z score was 1.62. For `CC(=O)N1CCN(c2nc3cc(Cl)ccc3cc2CNC[C@H](C)c2ccccc2)CC1`, the “% Inhibition” value was -12% and the Z score was 1.59. For `CN(c1ccc(C(=O)Nc2ccc3c(c2)OCCO3)c(Cl)c1)S(C)(=O)=O`, the “% Inhibition” value was -16% and the Z score was 1.98.
